Assay: soluble on expression in E. coli; label from the status in PepcDB or PDB records

Row | Sequence | soluble on expression in E. coli
1 | MDCSTNISPKQGLDKAKYFSGKWYVTHFLDKDPQVTDQYCSSFTPRESDGTVKEALYHYNANKKTSFYNIGEGKLESSGLQYTAKYKTVDKKKAVLKEADEKNSYTLTVLEADDSSALVHICLREGSKDLGDLYTVLTHQKDAEPSAKVKSAVTQAGLQLSQFVGTKDLGCQYDDQFTSL | soluble
2 | VVGGTEAQRNSWPSQISLQYRSGSSWAHTCGGTLIRQNWVMTAAHCVDRELTFRVVVGEHNLNQNDGTEQYVGVQKIVVHPYWNTDDVAAGYDIALLRLAQSVTLNSYVQLGVLPRAGTILANNSPCYITGWGLTRTNGQLAQTLQQAYLPTVDYAICSSSSYWGSTVKNSMVCAGGDGVRSGCQGDSGGPLHCLVNGQYAVHGVTSFVSRLGCNVTRKPTVFTRVSAYISWINNVIASN | soluble

Source: the DeepSol protein solubility set
